This is an account of results in the supplement of paper PMC11876631.

The target in the series is Escherichia coli (laboratory strain). As to the kind of experiment: barcode share on antibiotic plates over drug-free plates; higher = less susceptible. As for the experimental part:
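A pool of E. coli strains, each edited to carry one amino-acid change in an essential protein, was grown for 48 h on minimal glucose agar with or without antibiotic; strain barcodes were sequenced; mean of two replicates.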

Setting [1] is: antibiotic: carbenicillin, 2× MIC (3.1 µg/mL).
The mark [2] stands for this setting: antibiotic: gentamicin, 2× MIC (MIC 0.45 µg/mL).

± gives the standard deviation of the averaged measurements. Laboratory Escherichia coli strains with one amino-acid change in an essential protein, pooled on minimal glucose agar with carbenicillin or gentamicin at twice the control MIC (plus kanamycin and chloramphenicol for the plasmids), 48 h. Fold change of barcode share against drug-free plates; higher = less susceptible. Active = above 20 in both replicates (the paper's putatively resistant). '<' = one read or none on drug, '>' = one read or none on a drug-free plate. Shares are relative, so most strains fall below 1 when a few take over. Listed are strains with at least 15 reads on both drug-free plates, and hits; most hits rest on fewer reference reads. Replicate rank correlation about 0.5. Edits are read from barcodes.

B1: mreC L17A (protein)
chain: MKPIFSRGPSLQIRLIAAVLVALGIIIADSRLGTFSQIRTYMDTAVSPFYFVSNAPRELLDGVSQTLASRDQLELENRALRQELLLKNSELLMLGQYKQENARLRELLGSPLRQDEQKMVTQVISTVNDPYSDQVVIDKGSVNGVYEGQPVISDKGVVGQVVAVAKLTSRVLLICDATHALPIQVLRNDIRVIAAGNGCTDDLQLEHLPANTDIRVGDVLVTSGLGGRFPEGYPVAVVSSVKLDTQRAYTVIQARPTAGLQRLRYLLLLWGADRNGANPMTPEEVHRVANERLMQMMPQVLPSPDAMGPKLPEPATGIAQPTPQQPATGNAATAPAAPTQPAANRSPQRATPPQSGAQPPARAPGGQ
Regarding B1, the “fold change of barcode share” value is 0.534 ± 0.076 under setting [1] and 0.0128 ± 0.01 under setting [2].

B2: mreC L17Q (protein)
chain: MKPIFSRGPSLQIRLIQAVLVALGIIIADSRLGTFSQIRTYMDTAVSPFYFVSNAPRELLDGVSQTLASRDQLELENRALRQELLLKNSELLMLGQYKQENARLRELLGSPLRQDEQKMVTQVISTVNDPYSDQVVIDKGSVNGVYEGQPVISDKGVVGQVVAVAKLTSRVLLICDATHALPIQVLRNDIRVIAAGNGCTDDLQLEHLPANTDIRVGDVLVTSGLGGRFPEGYPVAVVSSVKLDTQRAYTVIQARPTAGLQRLRYLLLLWGADRNGANPMTPEEVHRVANERLMQMMPQVLPSPDAMGPKLPEPATGIAQPTPQQPATGNAATAPAAPTQPAANRSPQRATPPQSGAQPPARAPGGQ
For B2, the “fold change of barcode share” value by setting is: under setting [1], 0.407 ± 0.019; under setting [2], 0.00774 ± 0.0068.

B3: mreC L17W (protein)
chain: MKPIFSRGPSLQIRLIWAVLVALGIIIADSRLGTFSQIRTYMDTAVSPFYFVSNAPRELLDGVSQTLASRDQLELENRALRQELLLKNSELLMLGQYKQENARLRELLGSPLRQDEQKMVTQVISTVNDPYSDQVVIDKGSVNGVYEGQPVISDKGVVGQVVAVAKLTSRVLLICDATHALPIQVLRNDIRVIAAGNGCTDDLQLEHLPANTDIRVGDVLVTSGLGGRFPEGYPVAVVSSVKLDTQRAYTVIQARPTAGLQRLRYLLLLWGADRNGANPMTPEEVHRVANERLMQMMPQVLPSPDAMGPKLPEPATGIAQPTPQQPATGNAATAPAAPTQPAANRSPQRATPPQSGAQPPARAPGGQ
For B3, the “fold change of barcode share” value was 0.558 ± 0.15 under setting [1] and under 0.00342 under setting [2].

B4: mreC V19W (protein)
chain: MKPIFSRGPSLQIRLILAWLVALGIIIADSRLGTFSQIRTYMDTAVSPFYFVSNAPRELLDGVSQTLASRDQLELENRALRQELLLKNSELLMLGQYKQENARLRELLGSPLRQDEQKMVTQVISTVNDPYSDQVVIDKGSVNGVYEGQPVISDKGVVGQVVAVAKLTSRVLLICDATHALPIQVLRNDIRVIAAGNGCTDDLQLEHLPANTDIRVGDVLVTSGLGGRFPEGYPVAVVSSVKLDTQRAYTVIQARPTAGLQRLRYLLLLWGADRNGANPMTPEEVHRVANERLMQMMPQVLPSPDAMGPKLPEPATGIAQPTPQQPATGNAATAPAAPTQPAANRSPQRATPPQSGAQPPARAPGGQ
B4: the “fold change of barcode share” value is, setting by setting: under setting [1], 0.306 ± 0.16; under setting [2], under 0.00649.

B5: mreC V19Q (protein)
chain: MKPIFSRGPSLQIRLILAQLVALGIIIADSRLGTFSQIRTYMDTAVSPFYFVSNAPRELLDGVSQTLASRDQLELENRALRQELLLKNSELLMLGQYKQENARLRELLGSPLRQDEQKMVTQVISTVNDPYSDQVVIDKGSVNGVYEGQPVISDKGVVGQVVAVAKLTSRVLLICDATHALPIQVLRNDIRVIAAGNGCTDDLQLEHLPANTDIRVGDVLVTSGLGGRFPEGYPVAVVSSVKLDTQRAYTVIQARPTAGLQRLRYLLLLWGADRNGANPMTPEEVHRVANERLMQMMPQVLPSPDAMGPKLPEPATGIAQPTPQQPATGNAATAPAAPTQPAANRSPQRATPPQSGAQPPARAPGGQ
For the protein B5, the “fold change of barcode share” value was 0.51 ± 0.078 under setting [1] and under 0.00458 under setting [2].

B6: mreC I26W (protein)
chain: MKPIFSRGPSLQIRLILAVLVALGIWIADSRLGTFSQIRTYMDTAVSPFYFVSNAPRELLDGVSQTLASRDQLELENRALRQELLLKNSELLMLGQYKQENARLRELLGSPLRQDEQKMVTQVISTVNDPYSDQVVIDKGSVNGVYEGQPVISDKGVVGQVVAVAKLTSRVLLICDATHALPIQVLRNDIRVIAAGNGCTDDLQLEHLPANTDIRVGDVLVTSGLGGRFPEGYPVAVVSSVKLDTQRAYTVIQARPTAGLQRLRYLLLLWGADRNGANPMTPEEVHRVANERLMQMMPQVLPSPDAMGPKLPEPATGIAQPTPQQPATGNAATAPAAPTQPAANRSPQRATPPQSGAQPPARAPGGQ
As for B6, the “fold change of barcode share” value runs as follows: under setting [1], 0.286 ± 0.21; under setting [2], under 0.00801.

B7: mreC L17D (protein)
chain: MKPIFSRGPSLQIRLIDAVLVALGIIIADSRLGTFSQIRTYMDTAVSPFYFVSNAPRELLDGVSQTLASRDQLELENRALRQELLLKNSELLMLGQYKQENARLRELLGSPLRQDEQKMVTQVISTVNDPYSDQVVIDKGSVNGVYEGQPVISDKGVVGQVVAVAKLTSRVLLICDATHALPIQVLRNDIRVIAAGNGCTDDLQLEHLPANTDIRVGDVLVTSGLGGRFPEGYPVAVVSSVKLDTQRAYTVIQARPTAGLQRLRYLLLLWGADRNGANPMTPEEVHRVANERLMQMMPQVLPSPDAMGPKLPEPATGIAQPTPQQPATGNAATAPAAPTQPAANRSPQRATPPQSGAQPPARAPGGQ
On to B7, for which the “fold change of barcode share” value is 0.0593 ± 0.00064 under setting [1] and under 0.00645 under setting [2].

B8: mreC V19A (protein)
chain: MKPIFSRGPSLQIRLILAALVALGIIIADSRLGTFSQIRTYMDTAVSPFYFVSNAPRELLDGVSQTLASRDQLELENRALRQELLLKNSELLMLGQYKQENARLRELLGSPLRQDEQKMVTQVISTVNDPYSDQVVIDKGSVNGVYEGQPVISDKGVVGQVVAVAKLTSRVLLICDATHALPIQVLRNDIRVIAAGNGCTDDLQLEHLPANTDIRVGDVLVTSGLGGRFPEGYPVAVVSSVKLDTQRAYTVIQARPTAGLQRLRYLLLLWGADRNGANPMTPEEVHRVANERLMQMMPQVLPSPDAMGPKLPEPATGIAQPTPQQPATGNAATAPAAPTQPAANRSPQRATPPQSGAQPPARAPGGQ
For B8, the “fold change of barcode share” value turned out to be 0.346 ± 0.085 under setting [1] and 0.00506 ± 0.0019 under setting [2].

B9: mreC I26A (protein)
chain: MKPIFSRGPSLQIRLILAVLVALGIAIADSRLGTFSQIRTYMDTAVSPFYFVSNAPRELLDGVSQTLASRDQLELENRALRQELLLKNSELLMLGQYKQENARLRELLGSPLRQDEQKMVTQVISTVNDPYSDQVVIDKGSVNGVYEGQPVISDKGVVGQVVAVAKLTSRVLLICDATHALPIQVLRNDIRVIAAGNGCTDDLQLEHLPANTDIRVGDVLVTSGLGGRFPEGYPVAVVSSVKLDTQRAYTVIQARPTAGLQRLRYLLLLWGADRNGANPMTPEEVHRVANERLMQMMPQVLPSPDAMGPKLPEPATGIAQPTPQQPATGNAATAPAAPTQPAANRSPQRATPPQSGAQPPARAPGGQ
In the case of B9, the “fold change of barcode share” value under setting [1] is 0.14 ± 0.032 and the “fold change of barcode share” value under setting [2] was under 0.00752.

B10: mreC V19P (protein)
chain: MKPIFSRGPSLQIRLILAPLVALGIIIADSRLGTFSQIRTYMDTAVSPFYFVSNAPRELLDGVSQTLASRDQLELENRALRQELLLKNSELLMLGQYKQENARLRELLGSPLRQDEQKMVTQVISTVNDPYSDQVVIDKGSVNGVYEGQPVISDKGVVGQVVAVAKLTSRVLLICDATHALPIQVLRNDIRVIAAGNGCTDDLQLEHLPANTDIRVGDVLVTSGLGGRFPEGYPVAVVSSVKLDTQRAYTVIQARPTAGLQRLRYLLLLWGADRNGANPMTPEEVHRVANERLMQMMPQVLPSPDAMGPKLPEPATGIAQPTPQQPATGNAATAPAAPTQPAANRSPQRATPPQSGAQPPARAPGGQ
For the protein B10, the “fold change of barcode share” value under setting [1] is 0.857 ± 0.52 and the “fold change of barcode share” value under setting [2] came out at 0.00552 ± 0.0032.

B11: mreC L17P (protein)
chain: MKPIFSRGPSLQIRLIPAVLVALGIIIADSRLGTFSQIRTYMDTAVSPFYFVSNAPRELLDGVSQTLASRDQLELENRALRQELLLKNSELLMLGQYKQENARLRELLGSPLRQDEQKMVTQVISTVNDPYSDQVVIDKGSVNGVYEGQPVISDKGVVGQVVAVAKLTSRVLLICDATHALPIQVLRNDIRVIAAGNGCTDDLQLEHLPANTDIRVGDVLVTSGLGGRFPEGYPVAVVSSVKLDTQRAYTVIQARPTAGLQRLRYLLLLWGADRNGANPMTPEEVHRVANERLMQMMPQVLPSPDAMGPKLPEPATGIAQPTPQQPATGNAATAPAAPTQPAANRSPQRATPPQSGAQPPARAPGGQ
As to B11, the “fold change of barcode share” value is 0.379 ± 0.15 under setting [1] and 0.007948 ± 1.1e-05 under setting [2].

B12: mreB M272W (protein)
chain: MLKKFRGMFSNDLSIDLGTANTLIYVKGQGIVLNEPSVVAIRQDRAGSPKSVAAVGHDAKQMLGRTPGNIAAIRPMKDGVIADFFVTEKMLQHFIKQVHSNSFMRPSPRVLVCVPVGATQVERRAIRESAQGAGAREVFLIEEPMAAAIGAGLPVSEATGSMVVDIGGGTTEVAVISLNGVVYSSSVRIGGDRFDEAIINYVRRNYGSLIGEATAERIKHEIGSAYPGDEVREIEVRGRNLAEGVPRGFTLNSNEILEALQEPLTGIVSAVWVALEQCPPELASDISERGMVLTGGGALLRNLDRLLMEETGIPVVVAEDPLTCVARGGGKALEMIDMHGGDLFSEE
For B12, the “fold change of barcode share” value was 0.178 ± 0.17 under setting [1] and under 0.0142 under setting [2].

B13: mreB M272Q (protein)
chain: MLKKFRGMFSNDLSIDLGTANTLIYVKGQGIVLNEPSVVAIRQDRAGSPKSVAAVGHDAKQMLGRTPGNIAAIRPMKDGVIADFFVTEKMLQHFIKQVHSNSFMRPSPRVLVCVPVGATQVERRAIRESAQGAGAREVFLIEEPMAAAIGAGLPVSEATGSMVVDIGGGTTEVAVISLNGVVYSSSVRIGGDRFDEAIINYVRRNYGSLIGEATAERIKHEIGSAYPGDEVREIEVRGRNLAEGVPRGFTLNSNEILEALQEPLTGIVSAVQVALEQCPPELASDISERGMVLTGGGALLRNLDRLLMEETGIPVVVAEDPLTCVARGGGKALEMIDMHGGDLFSEE
Turning to B13, the “fold change of barcode share” value under setting [1] came out at 0.302 ± 0.061 and the “fold change of barcode share” value under setting [2] came out at 0.00622 ± 0.00063.
